Legend:
[1] = normal mouse serum, 0, 2, 4 and 6 h at 37 °C, MALDI-TOF MS, Fig. S1
[2] = normal mouse serum, within a 4 h incubation at 37 °C; cited from earlier work

Row | SMILES | serum degradation (in words) [1] | peptide degraded in serum [2]
1 | CC(C)C[C@@H]1NC(=O)[C@H](CC(=O)O)NC(=O)CNC(=O)[C@H](CCCNC(=N)N)NC(=O)[C@H](CC(C)C)NC(=O)[C@H](CC(N)=O)NC(=O)[C@@H]2CCCN2C(=O)[C@H](C(C)C)NC(=O)[C@H](C)NC(=O)[C@@H](NC(=O)CCCC[C@@H]2SC[C@@H]3NC(=O)N[C@@H]32)CSSC[C@@H](C(=O)N[C@@H](CCCNC(=N)N)C(=O)N[C@H](C(=O)N[C@@H](CCCCN)C(N)=O)[C@@H](C)O)NC(=O)[C@H](C(C)C)NC(=O)[C@H](CCCCN)NC(=O)[C@H](CCC(N)=O)NC(=O)[C@H](C)NC(=O)[C@H](CC(C)C)NC(=O)[C@H](C(C)C)NC(=O)[C@H](CCC(N)=O)NC1=O [C1C18 S–S] | faster degradation to the 385 Da smaller product compared with C1C18 DFBP | 
2 | CC(C)C[C@H](NC(=O)[C@H](CC(=O)O)NC(=O)CNC(=O)[C@H](CCCNC(=N)N)NC(=O)[C@H](CC(C)C)NC(=O)[C@H](CC(N)=O)NC(=O)[C@@H]1CCCN1C(=O)[C@@H](NC(=O)[C@H](C)NC(=O)[C@H](CC(N)=O)NC(=O)CCCC[C@@H]1SC[C@@H]2NC(=O)N[C@@H]21)C(C)C)C(=O)N[C@@H](CCC(N)=O)C(=O)N[C@H](C(=O)N[C@@H](CC(C)C)C(=O)N[C@@H](C)C(=O)N[C@@H](CCC(N)=O)C(=O)N[C@@H](CCCCN)C(=O)N[C@H](C(=O)N[C@@H](C)C(=O)N[C@@H](CCCNC(=N)N)C(=O)N[C@H](C(=O)N[C@@H](CCCCN)C(N)=O)[C@@H](C)O)C(C)C)C(C)C [A20FMDV2] |  | over 50%

Source: article PMC8138772 (The Journal of Biological Chemistry, 2021)
